Data: the supplement of paper PMC8728848
Some of the results follow.

Legend:
Assay in all cases: glycan array binding signal (z-score within array); higher = stronger binding
Settings in all cases: glycan notation: IUPAC condensed, linker removed; mutation: W10H
[1] = biological target: Neu5Ac(a2-6)GlcNAc(b1-4)GlcNAc(b1-4)GlcNAc
Method in brief: (§1)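 The binding signal is a Z-score computed within each array. Data were drawn from 3228 arrays in the Consortium for Functional Glycomics database, restricted to those with a known protein sequence. Scores were averaged over arrays of the same protein sequence at different concentrations or buffers, and over linkers, and negative values can be taken as non-binding.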

Neu5Ac(a2-8)Neu5Ac = biological target: Neu5Ac(a2-8)Neu5Ac
Method in brief: as §1

[2] = biological target: Neu5Ac(a2-8)Neu5Ac(a2-3)Gal(b1-3)GalNAc(b1-4)[Neu5Ac(a2-3)]Gal(b1-4)Glc
Method in brief: as §1

[3] = biological target: Neu5Ac(a2-8)Neu5Ac(a2-3)Gal(b1-3)GalNAc(b1-4)[Neu5Ac(a2-8)Neu5Ac(a2-3)]Gal(b1-4)Glc
Method in brief: as §1

[4] = biological target: Neu5Ac(a2-8)Neu5Ac(a2-3)Gal(b1-4)Glc
Method in brief: as §1

[5] = biological target: Neu5Ac(a2-8)Neu5Ac(a2-3)Gal(b1-4)GlcNAc
Method in brief: as §1

[6] = biological target: Neu5Ac(a2-8)Neu5Ac(a2-3)[Gal(b1-3)GalNAc(b1-4)]Gal(b1-4)Glc
Method in brief: as §1

[7] = biological target: Neu5Ac(a2-8)Neu5Ac(a2-3)[GalNAc(b1-4)]Gal(b1-4)Glc
Method in brief: as §1

[8] = biological target: Neu5Ac(a2-8)Neu5Ac(a2-8)Neu5Ac
Method in brief: as §1

[9] = biological target: Neu5Ac(a2-8)Neu5Ac(a2-8)Neu5Ac(a2-3)Gal(b1-4)Glc
Method in brief: as §1

[10] = biological target: Neu5Ac(a2-8)Neu5Ac(a2-8)Neu5Ac(a2-3)[Gal(b1-3)GalNAc(b1-4)]Gal(b1-4)Glc
Method in brief: as §1

[11] = biological target: Neu5Ac(a2-8)Neu5Ac(a2-8)Neu5Ac(a2-3)[GalNAc(b1-4)]Gal(b1-4)Glc
Method in brief: as §1

[12] = biological target: Neu5Ac(a2-8)Neu5Ac(a2-8)Neu5Ac(a2-8)Neu5Ac(a2-3)[GalNAc(b1-4)]Gal(b1-4)Glc
Method in brief: as §1

[13] = biological target: Neu5Ac(a2-8)Neu5Gc(a2-3)Gal(b1-4)GlcNAc
Method in brief: as §1

[14] = biological target: Neu5Ac(b2-6)Gal(b1-4)GlcNAc
Method in brief: as §1

Neu5Ac(b2-6)GalNAc = biological target: Neu5Ac(b2-6)GalNAc
Method in brief: as §1

[15] = biological target: Neu5Ac9Ac(a2-3)Gal(b1-3)GlcNAc
Method in brief: as §1

[16] = biological target: Neu5Ac9Ac(a2-3)Gal(b1-4)GlcNAc
Method in brief: as §1

[17] = biological target: Neu5Ac9Ac(a2-6)Gal(b1-4)GlcNAc
Method in brief: as §1

[18] = biological target: Neu5Gc(a2-3)Gal(b1-3)GlcNAc
Method in brief: as §1

[19] = biological target: Neu5Gc(a2-3)Gal(b1-3)[Fuc(a1-4)]GlcNAc
Method in brief: as §1

Neu5Gc(a2-3)Gal(b1-4)Glc = biological target: Neu5Gc(a2-3)Gal(b1-4)Glc
Method in brief: as §1

[20] = biological target: Neu5Gc(a2-3)Gal(b1-4)GlcNAc
Method in brief: as §1

[21] = biological target: Neu5Gc(a2-3)Gal(b1-4)GlcNAc(b1-3)Gal(b1-4)GlcNAc(b1-2)Man(a1-3)[Neu5Gc(a2-3)Gal(b1-4)GlcNAc(b1-3)Gal(b1-4)GlcNAc(b1-2)Man(a1-6)]Man(b1-4)GlcNAc(b1-4)GlcNAc
Method in brief: as §1

[22] = biological target: Neu5Gc(a2-3)Gal(b1-4)[Fuc(a1-3)]GlcNAc
Method in brief: as §1

[23] = biological target: Neu5Gc(a2-6)Gal(b1-4)GlcNAc
Method in brief: as §1

Neu5Gc(a2-6)GalNAc = biological target: Neu5Gc(a2-6)GalNAc
Method in brief: as §1

[24] = biological target: Neu5Gc(a2-8)Neu5Ac(a2-3)Gal(b1-4)GlcNAc
Method in brief: as §1

[25] = biological target: Neu5Gc(a2-8)Neu5Gc(a2-3)Gal(b1-4)GlcNAc
Method in brief: as §1

[26] = biological target: Neu5Gc(a2-8)Neu5Gc(a2-3)Gal(b1-4)GlcNAc(b1-3)Gal(b1-4)GlcNAc
Method in brief: as §1

[27] = biological target: Neu5Gc(a2-8)Neu5Gc(a2-6)Gal(b1-4)GlcNAc
Method in brief: as §1

[28] = biological target: Neu5Gc(b2-6)Gal(b1-4)GlcNAc
Method in brief: as §1

B1: Banana lectin (Musa acuminata) (protein)
chain: MNGAIKVGAHGGNGGSAFDMGPAYRIISVKIFSGDVVDGVDVTFTYYGKTETRHYGGSGGTPHEIVLQEGEYLVGMAGEVANYHGAVVLGKLGFSTNKKAYGPFGNTGGTPFSLPIAAGKISGFFGRGGKFLDAIGVYLEPLEHHHHHH
glycan array binding signal (z-score) [1]: -0.197
glycan array binding signal (z-score) (Neu5Ac(a2-8)Neu5Ac): -0.183
glycan array binding signal (z-score) [2]: -0.127
glycan array binding signal (z-score) [3]: -0.2
glycan array binding signal (z-score) [4]: -0.19
glycan array binding signal (z-score) [5]: -0.203
glycan array binding signal (z-score) [6]: -0.181
glycan array binding signal (z-score) [7]: -0.146
glycan array binding signal (z-score) [8]: -0.169
glycan array binding signal (z-score) [9]: -0.159
glycan array binding signal (z-score) [10]: -0.14
glycan array binding signal (z-score) [11]: -0.113
glycan array binding signal (z-score) [12]: -0.153
glycan array binding signal (z-score) [13]: -0.16
glycan array binding signal (z-score) [14]: -0.188
glycan array binding signal (z-score) (Neu5Ac(b2-6)GalNAc): -0.156
glycan array binding signal (z-score) [15]: -0.187
glycan array binding signal (z-score) [16]: -0.184
glycan array binding signal (z-score) [17]: -0.181
glycan array binding signal (z-score) [18]: -0.168
glycan array binding signal (z-score) [19]: -0.172
glycan array binding signal (z-score) (Neu5Gc(a2-3)Gal(b1-4)Glc): -0.171
glycan array binding signal (z-score) [20]: -0.193
glycan array binding signal (z-score) [21]: -0.162
glycan array binding signal (z-score) [22]: -0.178
glycan array binding signal (z-score) [23]: -0.12
glycan array binding signal (z-score) (Neu5Gc(a2-6)GalNAc): -0.166
glycan array binding signal (z-score) [24]: -0.194
glycan array binding signal (z-score) [25]: -0.149
glycan array binding signal (z-score) [26]: -0.163
glycan array binding signal (z-score) [27]: -0.162
glycan array binding signal (z-score) [28]: -0.185
